Test results reported in the supplement of paper PMC11417369.
± gives the standard deviation of the averaged measurements. Some of the results follow.

Tested on: PfAP2-LT AP2 domain (GST-tagged)
Assay: gcPBM binding intensity (ln(normalized median fluorescence intensity)); higher = stronger DNA binding
How it was run: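 For binding intensity, the highest Masliner-normalised natural-log median intensity across replicate spots of either probe orientation was taken. Protein bound to the array was stained with Alexa488 anti-GST antibody and scanned at 488 nm. The protein, GST-tagged P. falciparum DNA-binding domains from E. coli at about 25 μg on average, had been applied for 1 h to an Agilent 4 × 180k array of primer-extended double-stranded 36-bp intergenic genomic probes and negative controls.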

Sequence | gcPBM binding intensity (ln)
AATAAACAAATAAATAAACACACAATATATGTATAT [CACACA_site9268] | 9.12 ± 0.39
TTGTTTTCACCAAATACACACAAGCATACACCCCAT [CACACA_site2717] | 9.36 ± 0.042
ATACATAAATTTATACGTACATATATAGATACATAA [XGTACX_site675] | 8.86 ± 0.42
TTACATGCTAAAATTTGTACATATATGATAAATATT [XGTACX_site2648] | 8.62 ± 0.42
AAGTAAAATAAGTATACACACATAAATATGTAAATA [CACACA_site6467] | 9.29 ± 0.4
TTTTATTTTCGATGATGTACATTAAATTATACAGTA [XGTACX_site6053] | 8.51 ± 0.51
AAATATTACTCCTCAAGTACACATAAAAAAAAAATA [XGTACX_site2085] | 8.71 ± 0.32
AATATACAAAATAAATAAAATATATATATATATATA [CACACA_negctrl_site216] | 9.46 ± 0.3
TAAAAATTTAAGAAAACATGCATCTAACATATATAT [TGCATGCA_site342] | 8.62 ± 0.42
TATTTTTTTTGATATTGTACTTTTTTATTATTTTTT [XGTACX_site566] | 8.76 ± 0.51
AAATTATATATAAAATGTACATATGTAGGTAATTTT [XGTACX_site5047] | 9.35 ± 0.35
GAAAATATATTTAAGATGCACTTTAAAAATGTACTT | 8.57 ± 0.43
AAGTAATCATCATAAAGTACTAAATTATATTGTCAA [XGTACX_site5841] | 8.67 ± 0.37
TCTACATCTGTATATAAACACACAACAAAAATGCTT [CACACA_site9271] | 8.87 ± 0.27
GTATATATGTATGTATGTACTTATAAAGTTGCATAT [XGTACX_site5616] | 8.85 ± 0.47
TATTTATTGTGATACTTATATTATTTCATGATTAAT [CACACA_negctrl_site738] | 8.82 ± 0.4
ACTTTATTATATATTTGTACATATATTTTTAATTTC [XGTACX_site4144] | 9.06 ± 0.52
TTCTTACACAAAAAAATGAAATCAATCAAAAAAAAA [CACACA_negctrl_site869] | 8.41 ± 0.5
TATATATTTCAATAATGTACATATAATATATATATT [XGTACX_site4124] | 8.7 ± 0.38
AATGTGTAGACACGCACACACAAAAAAATATTTATA [CACACA_site7384] | 9.59 ± 0.36
AAAAAAAAAAAAAGTGCACACTTTTAATATAAATAT [CACACA_site3314] | 8.82 ± 0.41
TTTTATATATATTATACACACAAGGAAAAAAAAAAA [CACACA_site3677] | 8.7 ± 0.45
TTTTTTTTTTTCCTTACACACATATTTCATTTTATA [CACACA_site747] | 9.04 ± 0.49

Sequence | gcPBM binding intensity (ln)
TTTTTATTTTTTAGTAGTACACACTTTTTGAACCTT [XGTACX_site1091] | 8.81 ± 0.64
TATAAAAGGAAACACACACACATATATATATATATA [CACACA_site939] | 10.2 ± 0.32
TGGATATATGTAAAAATTGCAAGAAAGATAAAAGGA [CACACA_negctrl_site64] | 8.88 ± 0.6
ATTATGATATATATATGTACATATATATAATATAAT [XGTACX_site259] | 8.78 ± 0.28
TCTATGAATTAATATGCATGTAACGTATTTATACTT [TGCATGCA_site669] | 8.84 ± 0.36
TAGTATAATATGAACACACACACACCCACAAAAAAA [CACACA_site2009] | 10 ± 0.29
CAAAAAATATATTTTTGTACTTATGTTTTTATTTTG [XGTACX_site5230] | 8.69 ± 0.43
TTATAATATAAAAAATGTACATTAAAAAAAAAGATT [XGTACX_site8950] | 8.76 ± 0.46
AAGTATCAAAAATAAAGTACATATTTTGTAGGCAGG [XGTACX_site1463] | 8.94 ± 0.46
TATTTCACACAGTATATATATATATATATATATATA [TGCATGCA_negctrl_site118] | 9.72 ± 0.3
AAAAGATAAAATTATGCACACATACGAATAATTTTA [CACACA_site8497] | 8.92 ± 0.48
AAGGGAAAAAAAAAAGCACACATACGTAAATATATA [CACACA_site7960] | 8.94 ± 0.5
TGTTGGTATGTGAATGCATGCATATAAGTCTATCTG [TGCATGCA_site780] | 8.98 ± 0.34
GTTAATTTTTGTATAGTGCAAAAATATAATAGTATG | 8.64 ± 0.48
TTGAAGTATAATAAAGTGCAAAATTATAATGATCTT [GTGCAC_site9639] | 8.92 ± 0.49
ATCTGACAAAAGTGTACACATATATATATATATATA [CACACA_site4814] | 9.96 ± 0.028
AAATGGGAAATTTCATGTACTCATTTACCCTTATTA [XGTACX_site4740] | 8.56 ± 0.46
CACATAATGAAAAATACACACATGTATATTTATAAA [CACACA_site2736] | 8.99 ± 0.36
AGATATATATATAGGTGTACTGGAATGAAATTGTTT [XGTACX_site8200] | 8.88 ± 0.57
ATGATAATTATTAAGGGTACATAAAAATATATCTAT [XGTACX_site8969] | 8.67 ± 0.47
TATAATTATTTTTTCACACATATGTATTTATATATA [CACACA_site4205] | 8.87 ± 0.44
ATTATTTAACATGTGGACACAAAAATTTAAGGGTTC [CACACA_negctrl_site1269] | 8.73 ± 0.4
TACTAAGAAAAGAACTGTACATAGAATATACCCAAG [XGTACX_site4757] | 8.73 ± 0.44

Sequence | gcPBM binding intensity (ln)
AATATCAAAAAAAAAAAAAAAAAAAAAAAAAAAAAA [CACACA_negctrl_site288] | 8.16 ± 0.4
AATATATTAAATATTACACACATACATTTAGTGGAA [CACACA_site8609] | 8.78 ± 0.4
TAGTATTATTTTTTTTGTACATATAAATGTAAAATA [XGTACX_site5282] | 8.29 ± 0.49
TTTTTTTAAAATATGAGTACATAATATTGTAAAAAT [XGTACX_site6536] | 8.28 ± 0.35
AAAACATAAATACATACACACATAATATATATTAAG [CACACA_site4239] | 9.23 ± 0.45
TATATAAATATATAATGTACGTTTTAAAAATAATAT [XGTACX_site3881] | 8.6 ± 0.43
TTAATATGAAAACTCTGTACCCAACCTTCTTATGGA [XGTACX_site2126] | 8.62 ± 0.28
TTAATATATAATAAATTTTTTTTTTTTTTTTTTTTT [CACACA_negctrl_site892] | 8.355 ± 0.05
ATATATTAATATGTGTGTACTTAACCATTCATATGT [XGTACX_site7395] | 9.1 ± 0.4
ATATAATAAATGTAGGTGCATAAAAATATTTTGTTA [GTGCAC_site9780] | 8.95 ± 0.46
TTTTAATAATATGGATGTACATAAAAATAAATAAAT [XGTACX_site7937] | 8.76 ± 0.46
TTAACCACTAAAAGTACACACATATATACCTATATA [CACACA_site6026] | 8.98 ± 0.38
TACTAAATGATCATATGTACACATGTTTACTTTTTA [XGTACX_site1253] | 8.95 ± 0.35
AATATATATATATATATATATATTTCAATATATAAA [XGTACX_negctrl_site187] | 8.93 ± 0.23
ATACATATACACATTTGTACATATTCCTTTTTATCG [XGTACX_site1731] | 8.98 ± 0.46
TCTTGTTTTAATTTTTATATTATTATTTAGATATAT [CACACA_negctrl_site921] | 8.71 ± 0.44
TTATTTAAAATGAAAAGTACATATTACTTTCTCACA [XGTACX_site5043] | 8.4 ± 0.54
AAAATAAGAAAACAAATGCACACCATTTATATAGAT [CACACA_site1055] | 9.03 ± 0.39
TATATAATAAGAAAATATGTGCGTAGTTCAGCAAAA [XGTACX_negctrl_site304] | 8.85 ± 0.52
GAAAAATATATTCTGGTGCATGAATAAAATCATAAA | 8.53 ± 0.49
AATTGGATAAACCAATTGGATTATAATACGATATAT [CACACA_negctrl_site275] | 8.79 ± 0.49
ATATATATATATATATGTACATAATTAATAGCATAT [XGTACX_site1428] | 9.305 ± 0.035
GAAAAAGATGCGCATACACACAGATGAATAACAAAA [CACACA_site1628] | 9.37 ± 0.43

Sequence | gcPBM binding intensity (ln)
ATCATATTTATGTTGGTGCATTATACATAAAGTTTA [GTGCAC_site9574] | 8.68 ± 0.37
TGTCTTATTTATATTACACACTATATGAAAAAATAT [CACACA_site6807] | 8.6 ± 0.38
TATTCATCACTTTTTTGTACTTATGGATAAAATTTT [XGTACX_site3349] | 8.71 ± 0.5
ATAATTGTTTCTTTCTCCTTTTTATTTCATTTTAAA [CACACA_negctrl_site964] | 8.68 ± 0.41
CACAAAAAAAATTATACACACACACCCATATATATA [CACACA_site8255] | 9.82 ± 0.11
AAAGGATATATCCAGAGTACATATTCTGTGTAATAC [XGTACX_site1547] | 8.95 ± 0.53
TTTCAAAAATGAGTTACACACACACCGATATATATA [CACACA_site5263] | 9.45 ± 0.38
AATAAATACTAAATGGTGCAAAATTTTTTAACACTG | 8.72 ± 0.35
TATATATATTATAGATGTACTTTCATATATATGTTT [XGTACX_site8189] | 8.83 ± 0.49
AGCCACCATATTTACACACACATCAAAATGTATTAA [CACACA_site1816] | 9.48 ± 0.38
TAAATATAATCTAAATGTACATGACATAATTTTTTT [XGTACX_site2856] | 8.49 ± 0.51
GTGTAATATGAAATGTGTACACACGCACACACAAAA [XGTACX_site6180] | 9.82 ± 0.28
TAAAATATTTTTTGTAGTACCTTAATATTTTTGAAG [XGTACX_site3048] | 8.38 ± 0.4
TATTTATTTATGTACGCACACAGTTGATATTAATTC [CACACA_site2754] | 9.12 ± 0.39
ATGTATATTTTTAAAAGTACAGAATTTTCATATGAA [XGTACX_site5754] | 8.45 ± 0.51
ATAGTATCTGGTAGCTGTACGAGTCGTAGAGTCTAA [XGTACX_site2539] | 8.82 ± 0.33
ATATACAATACAAAAACACACACAAAAAAAGAAAAG [CACACA_site8668] | 9.59 ± 0.4
AACATTTTAAATTATACACACATTTTGAATATATAT [CACACA_site3470] | 8.91 ± 0.39
TATACACCCAGACACACACACACACCCAAAAAAAAA [CACACA_site497] | 10.2 ± 0.3
TGTTGTTGTAATTATTGTACGTTATGCGATTATTAT [XGTACX_site7005] | 9.09 ± 0.34
